Drawing on PubChem BioAssay AID488969 (Vanderbilt High Throughput Screening Facility, 2010), this text covers z-score for 114 compounds.

The full ranking holds about 110,000 compounds; the median of “z-score” is about -0.1, and the highest 2% start at about 2. The list shows a part of the results. Activity calls are given as the source filed them.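 The calls were made as follows: active = z-score in the third read window above 3 or below -3; inactive = the rest.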

This experiment addresses Metabotropic glutamate receptor 8 (Rattus norvegicus) (UniProt P70579). Kind of experiment: rat mGluR8 modulators via GIRK flux, primary screen, cell-based, thallium flux, HTS (AID 488969). Conditions: HEK293 rat mGluR8, GIRK (G protein-gated inwardly rectifying potassium channel) thallium flux, FluoZin2; at 10 µM; stronger effect = higher value; submaximal glutamate (EC20) added with thallium.
Chain of UniProt P70579 (P70579 whole entry, looked up): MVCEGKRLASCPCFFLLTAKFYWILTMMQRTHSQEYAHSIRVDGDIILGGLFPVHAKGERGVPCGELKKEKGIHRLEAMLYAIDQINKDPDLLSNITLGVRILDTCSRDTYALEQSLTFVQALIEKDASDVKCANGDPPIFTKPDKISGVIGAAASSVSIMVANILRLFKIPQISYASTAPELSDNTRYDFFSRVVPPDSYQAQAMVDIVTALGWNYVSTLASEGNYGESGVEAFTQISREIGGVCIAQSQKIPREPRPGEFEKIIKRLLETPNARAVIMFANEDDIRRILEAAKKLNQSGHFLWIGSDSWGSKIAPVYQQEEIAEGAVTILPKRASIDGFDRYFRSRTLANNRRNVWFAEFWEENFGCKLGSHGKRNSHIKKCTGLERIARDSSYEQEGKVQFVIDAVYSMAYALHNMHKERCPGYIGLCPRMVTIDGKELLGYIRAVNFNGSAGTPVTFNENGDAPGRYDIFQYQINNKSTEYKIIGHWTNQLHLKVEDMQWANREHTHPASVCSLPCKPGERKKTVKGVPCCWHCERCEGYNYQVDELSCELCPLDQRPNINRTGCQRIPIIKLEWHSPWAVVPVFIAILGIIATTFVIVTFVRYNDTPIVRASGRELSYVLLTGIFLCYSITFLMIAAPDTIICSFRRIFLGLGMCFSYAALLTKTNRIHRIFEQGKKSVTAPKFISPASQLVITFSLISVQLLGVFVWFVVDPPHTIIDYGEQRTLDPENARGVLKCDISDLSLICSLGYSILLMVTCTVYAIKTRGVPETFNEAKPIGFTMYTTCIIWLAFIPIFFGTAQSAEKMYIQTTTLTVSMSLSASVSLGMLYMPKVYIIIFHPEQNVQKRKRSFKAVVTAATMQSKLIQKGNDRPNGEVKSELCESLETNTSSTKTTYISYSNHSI
As to `COc1cccc(-n2ccnc2SCC(=O)Nc2nccs2)c1`, the z-score was -0.0634. The value for `Cn1c(N2CCN(C(=O)Nc3ccc(C(F)(F)F)cc3)CC2)nc2ccccc21` was 0.119; that for `CC(C)CNC(=O)c1ccc(Cl)c(Cl)c1` was -0.0712. In the case of `CN1CCCC(OC(=O)c2ccc3c(c2)OCCO3)C1` (centres undefined), the z-score came out at 0.119. As to `O=C(COC(=O)c1n[nH]c2ccccc12)NC(=O)NC1CCCCC1`, the z-score was -0.0546. The same measure for `O=C(NCCc1ccccc1)C1CCC(Cn2c(=O)c3ccccc3n(Cc3cccnc3)c2=O)CC1` (centres undefined): -0.39; for `COc1cc2ncnc(NCc3ccccc3C)c2cc1OC`: -0.403; for `c1cncc(-c2nc(-c3cccs3)cs2)c1`: 0.113.

Compound `CC(C)COC(=O)CCNc1n[nH]c(=O)[nH]c1=O` returned a z-score of 0.184. `COc1ccc(NC(=O)CCn2cccc2)cc1` displayed a z-score of 0.0919. As to `O=C1CC(=O)N(CCc2ccc(F)cc2)C(=O)N1`, the z-score is -0.302. The same measure for `CCOC(=O)c1sc(NC(=O)c2ccc(S(=O)(=O)N(C)C)cc2)nc1C`: -0.107; for `c1coc(CNC2CCCCC2)c1`: -0.0676; for `O=C(Nn1cnnc1)c1ccncc1`: -0.317. The same measure for `CCOC(=O)c1sc(N)nc1C(C)(C)C`: -0.244.

In the case of `Oc1c(CN2CCN(c3ccc(F)cc3)CC2)cc(Cl)c2cccnc12`, the z-score was -0.0554. The value for `CNC(=O)/C(=C\c1cccc(Oc2ccccc2)c1)NC(=O)c1ccccc1` was 0.601; that for `CCC1CCCCN1S(=O)(=O)c1ccc(NC(=O)c2cccs2)cc1` (centres undefined) was -0.41.

Consider `O=C(Nc1ccc2c(c1)N(Cc1ccccc1)C(=O)c1ccccc1S2)NC1CC1`, for which the z-score was -0.663. `CCOc1cc(C(=O)Nc2ccc(NC(C)=O)cc2)ccc1OCC(=O)N1CCCCC1` displayed a z-score of -0.343. The same measure for `COc1cc(/C=N/Nc2snc(SC)c2C#N)ccc1O`: 0.125; for `CNc1nc(C)c(C#N)cc1C(C)=O`: 0.0246; for `O=S(=O)(c1ccccc1)n1c(C(O)c2ccccn2)cc2ccccc21` (centres undefined): 0.524.

In turn, `CC12CN3CC(C)(CN(C1)C3c1ccc(Br)cc1)C2=O` (centres undefined) came in with a z-score of 0.119. The value for `COc1cccc(C2=Nn3c(nnc3-c3ccccc3O)SC2)c1` was -0.118; that for `Cc1ccc(C(=O)NCC(=O)OCC(=O)c2cc(C)n(Cc3ccco3)c2C)cc1` was -0.049. The same measure for `COc1ccc(C)cc1NC1=C(Cl)C(=O)N(C2CCCCC2)C1=O`: -0.0567. The same measure for `Cc1ccc2c(c1)c(Sc1ccccc1)c(CC(=O)O)n2C`: -0.191; for `CC(OC(=O)CN1C(=O)NC(C)(C)C1=O)C(=O)c1ccccc1` (centres undefined): -0.0313; for `CCCOc1ccc(N2CC(C(=O)Nc3ccc4c(c3)OCO4)CC2=O)cc1` (centres undefined): 0.624.

For `COC(=O)N/N=C/c1c(C)cc(C)cc1C`, the z-score is -0.378.

For `O=C(CCn1c(=O)c2sccc2n(CC(=O)NCc2ccco2)c1=O)NCc1ccccc1`, the z-score was 0.319. The same measure for `COc1ccc(/C=N/NC(=O)c2ccncc2)cc1CSc1nc2ccccc2s1`: -0.203; for `CC(C)c1cc(C(=O)NCc2ccco2)no1`: 0.251; for `c1ccc(-n2nnnc2OCCOc2nnnn2-c2ccccc2)cc1`: -0.166. The value for `CCC(=O)c1ccc(OCCn2cncn2)cc1` was -0.449. The value for `O=C(Nc1ccc(NC(=O)c2sc3ccccc3c2Cl)cc1Cl)c1ccco1` was -0.23; that for `C=CCn1c(SCC(=O)Nc2ccc3c(c2)OCO3)nnc1-c1ccccc1` was -0.167; that for `COc1ccc(CN(C)CC(=O)Nc2cc(OC)c([N+](=O)[O-])cc2C)c(OC)c1` was -0.503. Consider `CC(=O)c1sc(Nc2ccccn2)nc1C`, for which the z-score is 0.82. `COc1ccc(S(=O)(=O)Nc2ccc(S(=O)(=O)Nc3ccc(F)cc3)cc2)cc1C` yielded a z-score of -0.347. The value for `Cc1ccc(NC(=O)CSc2nnc(CNC(=O)c3c(F)cccc3Cl)o2)cc1` was -0.109. `COc1ccc(C(=O)NCc2nnc(SCC(=O)N3CCc4ccccc43)o2)cc1OC`: the z-score is -0.164. The same measure for `COc1ccccc1C1NC(=O)NC(C)=C1C(=O)Nc1cccc(C)c1C` (centres undefined): -0.0278; for `O=C(CC1NCCNC1=O)Nc1ccc2c(c1)OCO2` (centres undefined): 0.104. For the compound `COC(=O)c1ccc(Cl)c(NC(=O)CN2CCN(Cc3ccccc3)CC2)c1`, the z-score is -0.236. The value for `COCc1cc(C)nc(SCC(=O)Nc2cccc3cccnc23)c1C#N` was -1.69; that for `CCOC(=O)c1sc(NC(=O)c2c(C)noc2C)c(C(=O)OCC)c1C` was 0.241. For `Cc1cc(OCC(=O)N2CCCCCC2)ccc1[N+](=O)[O-]`, the z-score is 0.417. `CC1CCN(S(=O)(=O)c2ccc3c(c2)oc(=O)n3CC(=O)N2CCc3ccccc3C2)CC1` gave a z-score of -0.172. The same measure for `O=[N+]([O-])/C=C/c1c(OCc2ccccc2)ccc2ccccc12`: -0.339.

`CC(=O)N(CC(=O)O)c1ccccc1C(=O)O`: the z-score was -0.232.

In turn, `COc1cc(-c2ccc(NC(=O)CN3CCC(C)CC3)c(OC)c2)ccc1NC(=O)CN1CCC(C)CC1` had a z-score of -0.186. Compound `COC(=O)COn1c(SC(C)C)nc2ccccc2c1=O` gave a z-score of 2.57. In the case of `CCc1cc(=O)oc2cc(OS(C)(=O)=O)ccc12`, the z-score was 0.167. The value for `CCOc1c(Br)cc(CNc2ncn[nH]2)cc1OC` was 0.5; that for `COC(=O)c1ccc(C(=O)OC)c(NC(=S)N2CCN(c3ccccc3)CC2)c1` was 0.0318; that for `Cc1cccc(S(=O)(=O)CC(=O)Nc2nc(-c3ccccc3)cs2)c1` was -0.0717. The value for `O=C(CSc1nc(-c2ccc(F)cc2)cs1)N1CCOCC1` was active: 3.29; that for `CCn1c(N2CCN(C(=O)NC3CCCCC3)CC2)nc2ccccc21` was -0.00683; that for `O=C(NCCN1CCN(Cc2ccc([N+](=O)[O-])cc2)CC1)C(=O)Nc1ccccc1` was 0.103. In turn, `Cc1ccc(C(C(=O)NC2CCCC2)N(Cc2ccc3c(c2)OCO3)C(=O)Cc2cccs2)cc1` (centres undefined) gave a z-score of -0.235.

With `Cc1sc2nc(C(C)C)nc(SCC(=O)NCc3ccco3)c2c1C`, the z-score was active: 17. Turning to `O=C1CC(N2CCC(O)(c3ccc(Cl)cc3)CC2)C(=O)N1` (centres undefined), the z-score came out at 0.198.

Compound `CCCOc1ccc(-c2nc(C#N)c(N3CCN(CC)CC3)o2)cc1` displayed a z-score of -0.498. The compound `CC(C)C(c1nnnn1Cc1cccs1)N1CCN(c2ccccc2)CC1` (centres undefined) registered a z-score of -0.149. The value for `C=CCNc1sc(C(=O)c2ccc(C)cc2)c(N)c1C#N` was -0.454; that for `CNC(=S)N/N=C(\C)c1ccc(Cl)s1` was active: 3.13. The value for `Cc1ccc(C(=O)N2CCSCC2)cc1` was 0.55; that for `COc1cccc(/C=N/Nc2nc(N3CCCC3)nc(N3CCCC3)n2)c1O` was -0.936; that for `COc1ccc(N=C2C(=O)Nc3c(C)cccc32)cc1` was -0.214. The value for `O=[N+]([O-])c1ccc(Cl)c(/C=N/N2CCN(C3c4ccccc4-c4ccccc43)CC2)c1` was -0.279. Take `CCN1CCN(CCNC(=O)CSCc2nc(-c3ccc(OC)c(OC)c3)oc2C)CC1`: the z-score was -0.665. On to `Cc1ccc(-n2nnnc2SCC(=O)Nc2sc(C)c(C)c2C#N)cc1C`, for which the z-score amounted to 0.0896.

`CCCSc1nsc(NC(=O)C(c2ccccc2)c2ccccc2)n1` showed a z-score of -0.766. Consider `Nc1ccc(O)cc1C(=O)OCC(=O)C12CC3CC(CC(C3)C1)C2`, for which the z-score turned out to be 1.38.

For the compound `COCCCNC(=O)CSc1ccc(Cl)cc1`, the z-score was -0.166.

With `O=c1[nH]c(SCc2ccccc2Cl)nc2c1CCCC2`, the z-score was active: -3.29. With `Cc1ccc(Cc2cnc(NC(=O)c3cccs3)s2)cc1`, the z-score amounted to 0.394. In turn, `Cc1cc2nc(C)c(Cc3ccccc3)c(=O)n2[nH]1` displayed a z-score of -0.963. The value for `CCCCN(C(=O)c1ccc(S(=O)(=O)N(C)C)cc1)c1nc2ccccc2s1` was 0.11.

`c1ccc(Nc2nc3ccccc3o2)cc1`: the z-score is 0.464. The same measure for `Cc1ccc(C)c(NC(=S)N(CCc2nc3cc(C)c(C)cc3[nH]2)Cc2cccnc2)c1`: -0.422. The value for `O=C(Nc1ccc(N2C(=O)C3C4C=CC(C4)C3C2=O)cc1)Nc1cccnc1` (centres undefined) was 0.351; that for `Cc1nnc2c3ccccc3c(-c3ccccc3)nn12` was 0.188; that for `CN(C)CCCC1(O)c2ccccc2C=Cc2ccccc21` was -0.225. The value for `CCN(c1ccccc1)S(=O)(=O)c1ccc(NC(=O)C(C)(C)C)cc1` was -0.475; that for `CC1CCN(CCCOc2ccc(OCc3ccccc3)cc2)CC1` was 0.441; that for `O=c1c(S(=O)(=O)c2ccc(Cl)cc2)cn(Cc2ccccc2)c2ccc(F)cc12` was -0.29. Regarding `CC1(C)NC(=O)N(CCOCCOc2ccc3ccccc3c2Br)C1=O`, the z-score was -0.136. `COC(=O)c1ccccc1NC(=O)c1ccc(COc2cc(C)cc(C)c2)o1` showed a z-score of -0.0413. The value for `COc1ccc(CCCc2nnc(SCC(=O)Nc3cc(C)ccc3C)o2)cc1` was 0.086; that for `CN(C)CCCOC(=O)C1c2ccccc2Oc2ccccc21` was -0.226; that for `Nc1nnc(SCC(=O)N2CCN(c3ccccc3)CC2)n1-c1ccccc1` was -0.0261. Regarding `CC(=O)NC(CCS(C)(=O)=O)C(=O)Nc1ccc(C)c(F)c1` (centres undefined), the z-score worked out at 0.461. The same measure for `N#CCSCC(=O)Nc1ccc(Cl)cc1`: 0.285; for `CNC(=S)N/N=C/c1ccc(C(C)C)cc1`: active: 3.01; for `CC(NC(=O)COC(=O)Cn1cnc2ccccc2c1=O)C1CC2CCC1C2` (centres undefined): -0.141. The same measure for `CCOC(=O)CSc1nnc2n(Cc3ccccc3)c(=O)c3c4c(sc3n12)CCC4`: -0.815; for `CCOC(=O)c1c(C(C#N)C#N)cc(C)nc1C`: 0.478; for `O=C1NN(c2ccccc2)C(=O)/C1=C\c1cccn1-c1ccc(Cl)c([N+](=O)[O-])c1`: -0.471.

With `Cc1c2c(nc3c(C)cccc13)OC(C)C2` (centres undefined), the z-score was -0.282. The same measure for `CCOC(=O)c1cnc2cc(-c3ccc(C(C)(C)C)cc3)nn2c1N`: -0.286.

The compound `COC(=O)c1sc(NC(=O)COc2ccc(C)cc2)nc1C` registered a z-score of 0.145. The same measure for `Cc1ccc(OCCN2CCN(c3ncnc4sc(C)c(C)c34)CC2)cc1`: -2.57. The same measure for `CCSc1nc(C2CC2)cc(-c2cccs2)c1C#N`: -0.0632; for `COC(=O)c1c(NC(=O)c2c(C)noc2C)sc2c1CCCCCC2`: -0.379; for `CSc1ccccc1NS(=O)(=O)c1ccc2c(c1)OCCO2`: -0.0827.

Compound `COc1ccc(NC(=O)/C=C/c2ccccc2[N+](=O)[O-])c(OC)c1` gave a z-score of -0.345. The same measure for `Cc1cccc(C)c1Nc1nnc(SCC(=O)c2ccc(Br)s2)s1`: 0.224. In turn, `CCOC(=O)c1ccc(NC(=S)N(CCCN2CCCC2)Cc2ccco2)cc1` returned a z-score of -0.178.

For `Cc1cccc(Oc2cc(NC(=O)c3ccccc3)cc([N+](=O)[O-])c2)c1`, the z-score was -0.382.

Compound `CSc1cccc(NC(=O)CN(C2CCCCC2)S(C)(=O)=O)c1` returned a z-score of -0.0458.

`Cn1c(Sc2ccccc2Cl)c(C=O)c2ccccc21` displayed a z-score of -0.196.
